Data taken from PubChem BioAssay AID504332 (National Center for Advancing Translational Sciences (NCATS), 2011).
Among all 350,000 compounds or so, about 31,000 (8.9%) were called active. The inconclusive results got no clear call from the source; some entries with a clear call stand among them for comparison. Calls follow the shape of the dose curve; as a rule, active = well fitted inhibition curve with a large enough effect; inconclusive = small, poorly fitted or top-dose-only effect; inactive = no such curve, though single readings can be large or run the other way. Potencies of inconclusive entries are doubtful fits and often do not repeat.

Target: Histone-lysine N-methyltransferase EHMT2 (Homo sapiens) (UniProt Q96KQ7)
Assay: qHTS Assay for Inhibitors of Histone Lysine Methyltransferase G9a; also: nearly all actives have a fitted effect of over 75% in size
Details: G9a H3K9 monomethylation, AlphaScreen, 2 h; activity, negative = inhibition: at 59 µM (top of the series) unless noted
Outline: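 Signal arises when biotinylated H3K9 peptide, once monomethylated, bridges streptavidin donor and antibody-captured acceptor beads. Enzyme at 20 nM was preincubated 15 min with test compounds; peptide 500 nM and SAM 20 uM then reacted for 2 h.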
% is scaled to controls: 0 for no effect and ±100 for the full control effect; potency is read from the fitted curve at half-maximal effect; tags tell the direction and shape of the fitted curve.

UniProt Q96KQ7, sequence (Q96KQ7 whole entry, looked up): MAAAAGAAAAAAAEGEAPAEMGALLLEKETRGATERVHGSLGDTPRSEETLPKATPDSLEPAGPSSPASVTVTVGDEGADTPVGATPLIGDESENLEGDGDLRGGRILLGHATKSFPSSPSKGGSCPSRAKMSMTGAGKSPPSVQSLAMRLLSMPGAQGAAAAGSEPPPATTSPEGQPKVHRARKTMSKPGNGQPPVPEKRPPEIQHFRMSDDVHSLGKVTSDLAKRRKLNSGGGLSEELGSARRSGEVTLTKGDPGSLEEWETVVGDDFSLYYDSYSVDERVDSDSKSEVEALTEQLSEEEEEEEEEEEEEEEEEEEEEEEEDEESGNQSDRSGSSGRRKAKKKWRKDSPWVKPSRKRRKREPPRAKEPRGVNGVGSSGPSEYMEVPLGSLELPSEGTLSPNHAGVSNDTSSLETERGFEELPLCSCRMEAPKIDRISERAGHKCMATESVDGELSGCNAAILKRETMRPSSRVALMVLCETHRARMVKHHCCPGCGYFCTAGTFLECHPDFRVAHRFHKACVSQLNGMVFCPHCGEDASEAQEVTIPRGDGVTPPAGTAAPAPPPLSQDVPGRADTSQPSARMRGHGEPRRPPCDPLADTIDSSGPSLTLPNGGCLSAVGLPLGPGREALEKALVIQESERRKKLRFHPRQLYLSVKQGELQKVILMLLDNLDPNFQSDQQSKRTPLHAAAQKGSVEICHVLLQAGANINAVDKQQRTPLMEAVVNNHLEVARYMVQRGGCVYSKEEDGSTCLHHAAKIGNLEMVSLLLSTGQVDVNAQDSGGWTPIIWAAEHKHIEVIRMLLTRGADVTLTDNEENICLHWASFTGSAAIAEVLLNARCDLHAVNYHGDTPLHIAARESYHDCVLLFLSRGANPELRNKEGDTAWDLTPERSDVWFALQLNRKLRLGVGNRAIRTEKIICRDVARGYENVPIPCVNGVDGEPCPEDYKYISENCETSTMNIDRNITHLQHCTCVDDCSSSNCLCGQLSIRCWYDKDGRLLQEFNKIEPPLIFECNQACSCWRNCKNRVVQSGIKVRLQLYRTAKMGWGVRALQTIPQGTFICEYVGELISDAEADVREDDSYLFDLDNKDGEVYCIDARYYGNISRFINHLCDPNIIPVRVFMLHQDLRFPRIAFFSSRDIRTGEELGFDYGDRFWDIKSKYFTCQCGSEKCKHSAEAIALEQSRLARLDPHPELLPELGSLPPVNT

Row | Structure (SMILES) | Potency | activity, negative = inhibition
1 | Cc1oc(-c2ccc(Cl)cc2)nc1CSc1nc2ncccc2[nH]1 | inconclusive: 1.58 µM [inhibitor, partial curve, poor fit] | 
2 | CCCCS(=O)(=O)/C=C\C=C/S(=O)(=O)CCCC |  | inconclusive: -110% [inhibitor] [at 12.7 µM]
3 | O=C(Nc1ccc2oc(-c3ccncc3)nc2c1)c1ccccc1Cl | inconclusive: 17.8 µM [inhibitor, partial curve, poor fit] | 
4 | CN(C)C(C)(C)C#CCC(c1ccccc1)c1ccccc1 | inconclusive: 17.8 µM [inhibitor, single point] | 
5 | COc1cccc(C(=O)NC2=NCCS2)c1 | inconclusive: 22.4 µM [inhibitor, single point] | 
6 | CC(=O)N1C(C(=O)O)CSC1c1ccc(C)cc1 (centres undefined) | inconclusive: 56.2 µM [inhibitor, single point] | 
7 | O=C(CN1CCN(CC(=O)Nc2ccccc2Cl)CC1)Nc1ccc(F)c(F)c1 | inconclusive: 89.1 µM [inhibitor, single point] | 
8 | COc1ccc(CCNCC(O)Cn2c3ccccc3c3ccccc32)cc1OC (centres undefined) | inconclusive: 25.1 µM [inhibitor, full curve] | 
9 | COc1cccc(-c2nc(CS(=O)CC(=O)O)c(C)o2)c1 (centres undefined) | inconclusive: 100 µM [inhibitor, single point] | 
10 | O=C(Nc1ccccc1F)c1ccc(CSc2ncccn2)cc1 | inconclusive: 50.1 µM [inhibitor, partial curve, poor fit] | 
11 | O=C(CCc1ccccc1)Nc1nc2nc(-c3ccccc3)cc(=O)n2[nH]1 | inconclusive: 79.4 µM [inhibitor, single point] | 
12 | O=C(NNc1cc(C(F)(F)F)nc2ccccc12)Nc1cccc(Cl)c1 | inconclusive: 44.7 µM [inhibitor, partial curve] | 
13 | COc1ccc(CCN2C(=S)N(C)C(=O)C2CC(=O)Nc2ccc(OC)cc2)cc1 (centres undefined) | inactive | 
14 | O=C(CS(=O)Cc1ccco1)NCC=CCOc1cc(CN2CCCCC2)ccn1 (centres undefined) | inconclusive: 3.16 µM [inhibitor, partial curve, poor fit] | 
15 | Cc1cc(C(=O)N/N=C\c2cc(C(C)(C)C)c(O)c(C(C)(C)C)c2)n[nH]1 | active: 39.8 µM | 
16 | Nc1ccc(-c2nc3ccc(N)cc3[nH]2)cc1 | inactive | 
17 | Cc1ccc(-c2nnn(CC(=O)N(CC(=O)NC(C)C)c3cnc4ccccc4c3)n2)o1 |  | inconclusive: -64.9% [inhibitor]
18 | COc1ccc2cc(C(=O)NCc3ccc4c(c3)CCN4C(=O)c3ccc(F)cc3)[nH]c2c1 | inactive | 
19 | CCc1ccc2[nH]c(=O)c(CN(CCN3CCCC3)C(=O)NC3CCCCC3)cc2c1 | inconclusive: 39.8 µM [inhibitor, single point] | 
